# Source: the supplement of paper PMC8728848
# The list shows a part of the results.
# B1: Gal 3 (Homo sapiens), P17931 (protein)
# chain: MADNFSLHDALSGSGNPNPQGWPGAWGNQPAGAGGYPGASYPGAYPGQAPPGAYPGQAPPGAYHGAPGAYPGAPAPGVYPGPPSGPGAYPSSGQPSAPGAYPATGPYGAPAGPLIVPYNLPLPGGVVPRMLITILGTVKPNANILDFQRGNDVAFHFNPRFNENNRRVIVCNTKLDNNWGREEIQSVFPFESGKPFKIQVLVEPDHFKVAVNDAHLLQYNHRVKKLNEISKLGISGDIDLTSASYTMI
# How the values were obtained:
# Test in all cases: glycan array binding signal (z-score within array); higher = stronger binding
# Settings in all cases: glycan notation: IUPAC condensed, linker removed; mutation: R186I
# [1] = molecular target: Fuc(a1-2)[GalNAc(a1-3)]Gal(b1-4)GlcNAc(b1-3)Gal(b1-4)GlcNAc
# In short: (§1)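 The binding signal is a Z-score computed within each array. Data were drawn from 3228 arrays in the Consortium for Functional Glycomics database, restricted to those with a known protein sequence. Scores were averaged over arrays of the same protein sequence at different concentrations or buffers, and over linkers, and negative values can be taken as non-binding.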
# [2] = molecular target: Fuc(a1-2)[GalNAc(a1-3)]Gal(b1-4)GlcNAc(b1-3)Gal(b1-4)GlcNAc(b1-3)Gal(b1-4)GlcNAc
# In short: as §1
# [3] = molecular target: Fuc(a1-2)[GalNAc(a1-3)]Gal(b1-4)[Fuc(a1-3)]GlcNAc
# In short: as §1
# [4] = molecular target: Fuc(a1-2)[GalNAc(a1-4)]Gal(b1-4)GlcNAc
# In short: as §1
# [5] = molecular target: Fuc(a1-2)[GalNAc(b1-3)]Gal
# In short: as §1
# [6] = molecular target: Fuc(a1-3)GlcNAc
# In short: as §1
# [7] = molecular target: Fuc(a1-3)[Gal(b1-4)]Glc6S
# In short: as §1
# [8] = molecular target: Fuc(a1-3)[Gal(b1-4)]GlcNAc
# In short: as §1
# [9] = molecular target: Fuc(a1-3)[Gal(b1-4)]GlcNAc(b1-2)Man(a1-3)[Fuc(a1-3)[Gal(b1-4)]GlcNAc(b1-2)Man(a1-6)]Man(b1-4)GlcNAc(b1-4)GlcNAc
# In short: as §1
# [10] = molecular target: Fuc(a1-3)[Gal(b1-4)]GlcNAc(b1-3)Gal(b1-3)[Fuc(a1-4)]GlcNAc
# In short: as §1
# [11] = molecular target: Fuc(a1-3)[Gal(b1-4)]GlcNAc(b1-3)GalNAc
# In short: as §1
# [12] = molecular target: Fuc(a1-3)[Gal(b1-4)]GlcNAc(b1-4)Gal(b1-4)[Fuc(a1-3)]GlcNAc
# In short: as §1
# [13] = molecular target: Fuc(a1-3)[Gal(b1-4)]GlcNAc(b1-4)Gal(b1-4)[Fuc(a1-3)]GlcNAc(b1-4)Gal(b1-4)[Fuc(a1-3)]GlcNAc
# In short: as §1
# [14] = molecular target: Fuc(a1-3)[Gal(b1-4)]GlcNAc(b1-6)[Gal(b1-3)GlcNAc(b1-3)]Gal(b1-4)Glc
# In short: as §1
# [15] = molecular target: Fuc(a1-3)[Gal(b1-4)]GlcNAc6S
# In short: as §1
# [16] = molecular target: Fuc(a1-3)[Gal3S(b1-4)]GlcNAc
# In short: as §1
# [17] = molecular target: Fuc(a1-3)[Gal3S(b1-4)]GlcNAc6S
# In short: as §1
# [18] = molecular target: Fuc(a1-3)[GalNAc(b1-4)]GlcNAc
# In short: as §1
# [19] = molecular target: Fuc(a1-4)GlcNAc
# In short: as §1
# [20] = molecular target: Fuc(b1-3)GlcNAc
# In short: as §1
# [21] = molecular target: Gal(a1-2)Gal
# In short: as §1
# [22] = molecular target: Gal(a1-3)Gal
# In short: as §1
# [23] = molecular target: Gal(a1-3)Gal(b1-3)GlcNAc
# In short: as §1
# [24] = molecular target: Gal(a1-3)Gal(b1-3)GlcNAc(b1-2)Man(a1-3)[Gal(a1-3)Gal(b1-3)GlcNAc(b1-2)Man(a1-6)]Man(b1-4)GlcNAc(b1-4)GlcNAc
# In short: as §1
# [25] = molecular target: Gal(a1-3)Gal(b1-3)[Fuc(a1-4)]GlcNAc(b1-2)Man(a1-3)[Gal(a1-3)Gal(b1-3)[Fuc(a1-4)]GlcNAc(b1-2)Man(a1-6)]Man(b1-4)GlcNAc(b1-4)GlcNAc
# In short: as §1
# [26] = molecular target: Gal(a1-3)Gal(b1-4)Glc
# In short: as §1
# [27] = molecular target: Gal(a1-3)Gal(b1-4)GlcNAc
# In short: as §1
# [28] = molecular target: Gal(a1-3)Gal(b1-4)GlcNAc(b1-3)GalNAc
# In short: as §1
# [29] = molecular target: Gal(a1-3)Gal(b1-4)[Fuc(a1-3)]GlcNAc
# In short: as §1
# [30] = molecular target: Gal(a1-3)Gal(b1-4)[Fuc(a1-3)]GlcNAc(b1-2)Man(a1-3)[Gal(a1-3)Gal(b1-4)[Fuc(a1-3)]GlcNAc(b1-2)Man(a1-6)]Man(b1-4)GlcNAc(b1-4)GlcNAc
# In short: as §1
# [31] = molecular target: Gal(a1-3)GalNAc
# In short: as §1
# [32] = molecular target: Gal(a1-3)[Gal(a1-4)]Gal(b1-4)GlcNAc
# In short: as §1
# [33] = molecular target: Gal(a1-4)Gal(b1-3)GlcNAc(b1-2)Man(a1-3)[Gal(a1-4)Gal(b1-3)GlcNAc(b1-2)Man(a1-6)]Man(b1-4)GlcNAc(b1-4)GlcNAc
# In short: as §1
# [34] = molecular target: Gal(a1-4)Gal(b1-4)Glc
# In short: as §1
# [35] = molecular target: Gal(a1-4)Gal(b1-4)GlcNAc
# In short: as §1
# [36] = molecular target: Gal(a1-4)Gal(b1-4)GlcNAc(b1-2)Man(a1-3)[Gal(a1-4)Gal(b1-4)GlcNAc(b1-2)Man(a1-6)]Man(b1-4)GlcNAc(b1-4)GlcNAc
# In short: as §1
# [37] = molecular target: Gal(a1-4)Gal(b1-4)GlcNAc(b1-3)Gal(b1-4)Glc
# In short: as §1
# [38] = molecular target: Gal(a1-4)GlcNAc
# In short: as §1
# [39] = molecular target: Gal(a1-6)Glc
# In short: as §1
# [40] = molecular target: Gal(b1-2)Gal
# In short: as §1
# [41] = molecular target: Gal(b1-3)Gal
# In short: as §1
# [42] = molecular target: Gal(b1-3)Gal(b1-4)GlcNAc
# In short: as §1
# [43] = molecular target: Gal(b1-3)Gal(b1-4)GlcNAc(b1-2)Man(a1-3)[Gal(b1-3)Gal(b1-4)GlcNAc(b1-2)Man(a1-6)]Man(b1-4)GlcNAc(b1-4)GlcNAc
# In short: as §1
# [44] = molecular target: Gal(b1-3)GalNAc
# In short: as §1
# [45] = molecular target: Gal(b1-3)GalNAc(a1-3)[Fuc(a1-2)]Gal(b1-4)Glc
# In short: as §1
binder,measurement,setting,value
B1,glycan array binding signal (z-score),[1],-0.13
same,glycan array binding signal (z-score),[2],-0.113
same,glycan array binding signal (z-score),[3],-0.143
same,glycan array binding signal (z-score),[4],-0.085
same,glycan array binding signal (z-score),[5],-0.014
same,glycan array binding signal (z-score),[6],-0.193
same,glycan array binding signal (z-score),[7],-0.192
same,glycan array binding signal (z-score),[8],-0.124
same,glycan array binding signal (z-score),[9],-0.092
same,glycan array binding signal (z-score),[10],-0.109
same,glycan array binding signal (z-score),[11],-0.119
same,glycan array binding signal (z-score),[12],-0.144
same,glycan array binding signal (z-score),[13],-0.194
same,glycan array binding signal (z-score),[14],-0.153
same,glycan array binding signal (z-score),[15],-0.183
same,glycan array binding signal (z-score),[16],-0.147
same,glycan array binding signal (z-score),[17],-0.154
same,glycan array binding signal (z-score),[18],-0.127
same,glycan array binding signal (z-score),[19],-0.177
same,glycan array binding signal (z-score),[20],-0.096
same,glycan array binding signal (z-score),[21],-0.175
same,glycan array binding signal (z-score),[22],-0.171
same,glycan array binding signal (z-score),[23],-0.172
same,glycan array binding signal (z-score),[24],-0.169
same,glycan array binding signal (z-score),[25],-0.175
same,glycan array binding signal (z-score),[26],-0.104
same,glycan array binding signal (z-score),[27],-0.191
same,glycan array binding signal (z-score),[28],-0.022
same,glycan array binding signal (z-score),[29],-0.188
same,glycan array binding signal (z-score),[30],-0.192
same,glycan array binding signal (z-score),[31],-0.161
same,glycan array binding signal (z-score),[32],-0.182
same,glycan array binding signal (z-score),[33],-0.147
same,glycan array binding signal (z-score),[34],-0.173
same,glycan array binding signal (z-score),[35],-0.127
same,glycan array binding signal (z-score),[36],-0.177
same,glycan array binding signal (z-score),[37],-0.159
same,glycan array binding signal (z-score),[38],-0.161
same,glycan array binding signal (z-score),[39],-0.185
same,glycan array binding signal (z-score),[40],-0.111
same,glycan array binding signal (z-score),[41],-0.177
same,glycan array binding signal (z-score),[42],-0.192
same,glycan array binding signal (z-score),[43],11.1
same,glycan array binding signal (z-score),[44],-0.143
same,glycan array binding signal (z-score),[45],-0.162
